Measurements taken from the BET-seq Pho4 binding data (Le et al. 2018).
The other results are listed elsewhere or left out. These are noisy estimates, calculated here from bound and input reads.

molecular target: T1, Pho4 (S. cerevisiae) (UniProt P07270); experiment: relative binding free energy (BET-seq); higher = weaker binding; conditions: reference: library average
T1 sequence: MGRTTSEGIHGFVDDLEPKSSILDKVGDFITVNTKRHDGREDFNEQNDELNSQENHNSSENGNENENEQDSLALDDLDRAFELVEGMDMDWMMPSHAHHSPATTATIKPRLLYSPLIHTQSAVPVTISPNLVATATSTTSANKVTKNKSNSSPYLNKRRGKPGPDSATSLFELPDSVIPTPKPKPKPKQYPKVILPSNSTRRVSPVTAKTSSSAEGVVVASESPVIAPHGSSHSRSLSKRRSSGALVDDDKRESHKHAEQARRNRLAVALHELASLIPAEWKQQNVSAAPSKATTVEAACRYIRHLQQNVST

| Sequence | relative binding free energy [kcal/mol] |
| --- | --- |
| ATCGTCACGTGGCGGG | -0.12 |
| AGGATCACGTGTGGTA | 0.32 |
| GCTTTCACGTGGGGTA | 0.08 |
| AGGTGCACGTGAGAGT | 0.26 |
| TTCTGCACGTGCGAGG | 0.15 |
| GGCTACACGTGGTTGA | 0.14 |
| GTCGTCACGTGGTGGC | 0.12 |
| GGGGGCACGTGGCTGA | -0.07 |
| AAGGGCACGTGCTCGG | -0.35 |
| TGCCACACGTGTGTTT | 0.11 |
| GTGTGCACGTGGGATG | -0.02 |
| CGGTGCACGTGGTCGT | -0.19 |
| GAAATCACGTGGTGGG | 0.27 |
| TTAGACACGTGATGGA | 0.18 |
| TTCTACACGTGGTGGG | 0 |
| CTCGTCACGTGAGGGG | 0.26 |
| TTCTTCACGTGTTAAG | 0.2 |
| ATTCGCACGTGGGTAG | -0.22 |
| TAAAGCACGTGAGGTT | 0.14 |
| ATTGGCACGTGGCTAT | -0.14 |
| ATAGACACGTGTGTGT | -0.04 |
| CTTGTCACGTGGGCTG | -0.2 |
| GTTAACACGTGGGGTC | -0.13 |

| Sequence | relative binding free energy [kcal/mol] |
| --- | --- |
| CAGTTCACGTGGGGAG | 0.2 |
| GGTTTCACGTGGAAAG | 0.26 |
| TGGATCACGTGTTGGC | 0.32 |
| ATGTTCACGTGGCAGT | 0.18 |
| ATTGTCACGTGTATTT | 0.18 |
| AAGTTCACGTGCGTTT | 0.29 |
| TTCCACACGTGGTGGG | 0.05 |
| GGAGCCACGTGAGTTG | 0.12 |
| GTTGTCACGTGGCTTA | 0.01 |
| CGTGACACGTGGGTAG | -0.17 |
| TAGTGCACGTGATTAT | 0.17 |
| GTTAGCACGTGGGACG | 0.02 |
| ATGAACACGTGGGAGG | -0.08 |
| GGATTCACGTGTCAGT | 0.41 |
| AAGTTCACGTGTATTA | 0.24 |
| GGGTACACGTGTGGTA | 0.14 |
| AGACGCACGTGGGTGA | -0.25 |
| GGTTGCACGTGTTTTT | 0.07 |
| CTTGGCACGTGTATGT | -0.01 |
| TATTACACGTGTGAGT | 0.13 |
| CGGGTCACGTGTAGTG | 0.1 |
| AGAATCACGTGGTGGT | 0.21 |
| GCTGACACGTGGTTGG | 0.04 |

| Sequence | relative binding free energy [kcal/mol] |
| --- | --- |
| GCTTACACGTGGGGAT | -0.06 |
| AGTGGCACGTGTTAGT | -0.19 |
| ATTAACACGTGAGTGT | 0.07 |
| GGTCGCACGTGTTGTA | 0.04 |
| GGGGCCACGTGTAGTG | 0.08 |
| GTTTCCACGTGAAGTG | 0.34 |
| AGTTGCACGTGCGGGC | -0.12 |
| GTGGACACGTGAGGAA | 0.33 |
| ATAGGCACGTGGTGTC | -0.1 |
| GAGTGCACGTGCTTTT | -0.01 |
| TAGCTCACGTGAGAGG | 0.36 |
| TAGGTCACGTGATTGG | 0.15 |
| GGGGACACGTGTCGAG | 0.03 |
| GTAGCCACGTGGTGGC | -0.07 |
| ACAGTCACGTGGTGTG | -0.03 |
| TTGGACACGTGGTTGT | 0.01 |
| GTGACCACGTGGGAGG | -0.25 |
| TGCGTCACGTGGATGT | 0.08 |
| GCTGTCACGTGTCGTT | 0.18 |
| CGGATCACGTGGGTAA | 0.07 |
| TTTCACACGTGTATTG | 0.05 |
| AGTTCCACGTGAAGTG | 0.37 |
| CTGGTCACGTGAGCGT | 0.27 |

| Sequence | relative binding free energy [kcal/mol] |
| --- | --- |
| TGGGTCACGTGTGTCA | 0.08 |
| TTGATCACGTGTATGG | 0.16 |
| GGTGTCACGTGACTTA | 0.17 |
| AGTTACACGTGGGATG | 0.17 |
| TTTGCCACGTGCTGTG | -0.15 |
| TGCGTCACGTGGGCCG | -0.11 |
| CAGCGCACGTGGTTGT | -0.07 |
| ATAATCACGTGTGATA | 0.31 |
| GTGATCACGTGAGCTG | 0.34 |
| TTCTTCACGTGTTAGT | 0.27 |
| CTTTACACGTGGTCGG | 0 |
| TGTTACACGTGCTTGT | 0.06 |
| ATCTGCACGTGTATTG | -0.06 |
| GGAGGCACGTGGTGCC | -0.04 |
| GTTCTCACGTGGCTGG | 0.2 |
| GGCTTCACGTGATGTT | 0.52 |
| CTGATCACGTGGTGGT | 0.19 |
| CATTGCACGTGATGAG | 0.12 |
| AGTGTCACGTGTTTCA | 0.12 |
| TAAGCCACGTGTGTTA | 0.05 |
| CTGGTCACGTGTGAAT | 0.19 |
| GGGTGCACGTGCTGTA | -0.11 |
| GGTTACACGTGAGTAT | 0.33 |

| Sequence | relative binding free energy [kcal/mol] |
| --- | --- |
| CTGGGCACGTGCGTAG | -0.12 |
| TACGCCACGTGGGGGG | -0.27 |
| GAGGTCACGTGGTTAT | 0.12 |
| CTGGTCACGTGAGAGT | 0.45 |
| TTTTTCACGTGCGGGA | 0.3 |
| AAGAGCACGTGGGGGA | -0.22 |
| TTACTCACGTGGGAAA | 0.36 |
| AAGTTCACGTGGAGTC | 0.39 |
| GATGGCACGTGGTGCG | -0.06 |
| GAGTGCACGTGGTCAG | -0.16 |
| GGGTTCACGTGTTACG | 0.36 |
| GGGGGCACGTGACATG | -0.12 |
| GGTTTCACGTGTGACA | 0.27 |
| GAGTTCACGTGCGTCG | 0.21 |
| CAGGACACGTGGAGGG | 0 |
| AAGCGCACGTGAAGGG | 0.05 |
| GTTTGCACGTGGTGAC | 0.02 |
| GTGATCACGTGTCGTT | 0.03 |
| CGTTGCACGTGTGGGG | 0.01 |
| AGTTTCACGTGGTGAC | 0.23 |
| AACGTCACGTGTAAGG | 0.13 |
| CTGGTCACGTGGTGTT | 0.07 |
| TTGGGCACGTGATGGG | 0.08 |
